Experimental data from PubChem BioAssay AID463173 (ICCB-Longwood Screening Facility, Harvard Medical School, 2010).
In all, about 52,000 compounds went through this assay and about 1,700 (3.3%) were called active. Rule as the data show it: active = survival mostly below about 52% (no sharp cut-off); inactive = mostly above about 56%. Some of the results follow.

These compounds were tested on Wild type (assay: S. aureus survival, RN4220 and DeltatarO strains – OD600, teichoic acid synthesis inhibitors, primary screen (AID 463173)). Settings: S. aureus RN4220 wild type/DeltatarO growth, OD600, 18 h, active compounds read low, screened at 18.75 µg/mL (by protocol).
In the case of `Cc1cc(NC(=O)CN2C(=O)CSc3ccc(S(=O)(=O)N(C)C)cc32)ccc1Br`, the survival is reported as inactive: 92%. With `Cc1cc(C)nc(SCC(N)=O)n1` the survival was inactive: 101%. In the case of `COc1ccc(Cl)cc1NC(=O)CSc1cn(CC(=O)N2CCCC2)c2ccccc12`, the survival is reported as inactive: 96%. With `COc1ccccc1CNC(=O)c1cc2c(=O)n(Cc3cccs3)ccc2nc1C` the survival was inactive: 77%. `Cc1ccc(-n2c(SCC(=O)N3CCC(C)CC3)nc3c([nH]c4ccccc43)c2=O)cc1` was tested, and the survival was active: -6%. `COc1cccc(-c2ccnc3[nH]n(-c4ccccc4)c(=O)c23)c1` was tested, and the survival was inactive: 81%. In the case of `CC(C)c1nnc(NC(=O)c2nc(S(=O)(=O)Cc3ccccc3)ncc2Cl)s1`, the survival is reported as inactive: 55%. With `Cc1ccc(NC(=O)c2ccc(F)c(S(=O)(=O)N3CCc4ccccc4C3)c2)cc1F` the survival was inactive: 92%. With `COc1ccc2c(c1)c(=O)c(C(=O)c1ccc(Cl)cc1)cn2CC(=O)Nc1ccc2c(c1)OCO2` the survival was inactive: 103%. `CCN(Cc1ccccc1)C(=O)CCS(=O)(=O)c1ccc2c(c1)oc(=O)n2C` was tested, and the survival was inactive: 127%. `O=C(Nc1ccccc1)C1CCN(C(=O)c2cccs2)CC1` was tested, and the survival was inactive: 121%. `Cn1c(=O)n(CCCc2ccccc2)c(=O)c2c1nc1n2CCN1c1ccccc1` was tested, and the survival was inactive: 85%. With `CCOC(=O)c1scc(-c2ccc(C)cc2)c1S(=O)(=O)Nc1ccc(F)c(F)c1` the survival was inactive: 72%. For `CCOc1ccc(CCNC(=O)c2ccc3c(c2)N(Cc2cccc(Cl)c2)C(=O)c2ccccc2S3(=O)=O)cc1OCC`, the survival was inactive: 148%. With `Cc1c(Cl)cccc1NC(=O)NCCOCCn1c(=O)oc2ccccc21` the survival was inactive: 84%. For `CCOC(=O)N1CCc2c(sc(NCc3sccc3C)c2C(=O)Nc2ccccc2OCC)C1`, the survival was inactive: 74%. `CCOC(=O)c1ccc(NC(=O)CN2C(=O)CC(c3ccc(C)c(C)c3)=Nc3ccccc32)cc1` was tested, and the survival was inactive: 70%. With `Cc1cc(-c2nc3ccccc3s2)ccc1NC(=O)c1cc(Cl)ccc1Cl` the survival was inactive: 92%. With `N#CC1=C(N)C(C#N)(C#N)C(c2cccs2)C2CN(C(=O)OCc3ccccc3)CC=C12` (stereo not drawn) the survival was inactive: 118%. In the case of `COc1ccc2c(C)c(CCC(=O)NCc3ccc(OC)c(OC)c3)c(=O)oc2c1`, the survival is reported as inactive: 112%. For `COc1ccc2[nH]c(=O)c(C(c3nnnn3Cc3ccccc3)N3CCCC3)cc2c1` (stereo not drawn), the survival was inactive: 111%. With `Cc1sc(NC(=O)COc2ccc(C(C)(C)C)cc2)c(C(=O)OC(C)C)c1C` the survival was active: 10%. For `CCOc1cc(C2c3c(oc4ccccc4c3=O)C(=O)N2Cc2ccccc2Cl)ccc1O` (stereo not drawn), the survival was inactive: 90%. `CCc1ccc(N2C(=O)CS(=O)(=O)C23C(=O)N(Cc2ccccc2F)c2ccccc23)cc1` (stereo not drawn) was tested, and the survival was inactive: 92%. In the case of `COc1ccc(C2CC(=O)c3c([nH]c(C(=O)OCCOc4ccccc4)c3C)C2)cc1OC` (stereo not drawn), the survival is reported as inactive: 134%. In the case of `CCn1cc(C(=O)N2CCN(c3ccccc3)CC2)c(=O)c2cc(S(=O)(=O)N3CCC(C)CC3)ccc21`, the survival is reported as inactive: 84%. For `CCOc1ccc(NC(=O)c2cn3c4c(ccc(Cl)c4c2=O)OC(C)C3)cc1` (stereo not drawn), the survival was inactive: 82%. `CCN1CCN(C(=O)c2cnn(-c3cccc(C)c3)c2C2CCN(C(=O)OC(C)(C)C)CC2)CC1` was tested, and the survival was inactive: 80%. For `CNC(=O)Cc1nc2ccccc2[nH]1`, the survival was inactive: 108%. With `COc1cccc(CNC(=O)c2cccn2-c2nnc(N3CCCC3)s2)c1` the survival was inactive: 88%. In the case of `COc1cccc(NC(=O)C2CCN(S(=O)(=O)c3cc(-c4noc(C)n4)ccc3C)CC2)c1`, the survival is reported as inactive: 124%. `O=C(N=Nc1c(O)n(CN2CCCC2)c2ccccc12)c1ccccc1` was tested, and the survival was inactive: 110%. In the case of `COc1cc(-c2noc(-c3cc(C)[nH]n3)n2)cc(OC)c1OC`, the survival is reported as inactive: 68%. `Nc1nc2ccc(CCC(=O)O)cc2s1` was tested, and the survival was inactive: 95%. For `COc1ccc(CNC(=O)C2CCN(S(=O)(=O)c3cn(C)cn3)CC2)cc1`, the survival was inactive: 79%. `COc1ccc(NC(=O)N(Cc2ccco2)C2CCN(C(C)=O)CC2)c(OC)c1` was tested, and the survival was inactive: 85%. With `Cc1ccc(-c2noc(C3CC(=O)N(c4ccc5c(c4)OCCO5)C3)n2)cc1` (stereo not drawn) the survival was inactive: 64%. With `COc1ccc(-n2c(=O)c3sc4ccccc4c3n(Cc3ccccc3)c2=O)cc1` the survival was inactive: 81%. With `CC(=O)c1cccc(NC(=O)Cn2c(C)c3cnn(-c4ccccc4)c(=O)c3c2C)c1` the survival was inactive: 115%. For `Cc1ccc2c(CNC3CCC(C)CC3)c(C(=O)O)n(Cc3cccc(F)c3)c2c1` (stereo not drawn), the survival was inactive: 57%. In the case of `CCN(CC)CCNC(=O)c1ccc2c(c1)N(Cc1ccccc1)C(=O)c1ccccc1S2=O` (stereo not drawn), the survival is reported as inactive: 119%. In the case of `Cc1cccc(C)c1NC(=O)CN(C)S(=O)(=O)c1ccc2c(c1)n(C)c(=O)c(=O)n2C`, the survival is reported as inactive: 83%. `CCc1ccc(OCC(=O)NCC(c2ccc(OC)cc2)N2CCOCC2)cc1` (stereo not drawn) was tested, and the survival was inactive: 71%. With `CCSc1nc(=O)c2c(n1C)NC(=O)CC2c1ccc(O)cc1OC` (stereo not drawn) the survival was inactive: 95%. `COc1ccc(C2CC(=O)N(CC(=O)Nc3ccc(C(F)(F)F)cc3)c3ccccc3S2)cc1` (stereo not drawn) was tested, and the survival was inactive: 96%. With `COc1ccc(C(=O)Nc2ccc3nc(SCC(=O)N4CCOCC4)sc3c2)cc1` the survival was inactive: 84%. With `COC(=O)c1ccc(OC)c(Cn2c(=O)n(-c3ccc(C)cc3)c(=O)c3c2cnn3C)c1` the survival was inactive: 76%. With `O=C1C2C3C=CC(C3)C2C(=O)N1CCN1CCN(S(=O)(=O)c2cccs2)CC1` (stereo not drawn) the survival was inactive: 102%. `COc1cc(NC(=O)c2cc3nc(-c4ccccc4)cc(-c4ccccc4)n3n2)c(OC)cc1Cl` was tested, and the survival was inactive: 79%. In the case of `COc1cc2c(cc1OC)C(c1ccc(F)cc1)N(c1ccc(F)cc1)C(=O)C2` (stereo not drawn), the survival is reported as inactive: 119%. For `CC1CCN(c2nc3ccc(C(=O)NCc4ccc(Cl)cc4)cc3s2)CC1`, the survival was inactive: 134%. In the case of `CCc1nn(CC(=O)NC2CC2)c(=O)c2cc3ccccc3n12`, the survival is reported as inactive: 121%. `O=C(Cn1c(=O)nc(-c2ccccc2)c2cc(Cl)ccc21)NCCCc1ccccc1` was tested, and the survival was inactive: 68%. For `Cn1cc(C(=O)NCc2ccccc2)c(=O)c2cc(S(=O)(=O)N3CCCCCC3)ccc21`, the survival was inactive: 133%. For `COc1cccc(CNC(=O)c2c3c(nc4ccccc24)C(=O)N(C2CCCCC2)C3)c1`, the survival was inactive: 64%. With `Cc1ccc(C)c(CSc2nc3ccncc3n2Cc2nc(-c3ccccc3Cl)oc2C)c1` the survival was inactive: 61%. In the case of `Cn1c(N2CCN(S(=O)(=O)c3ccc(Cl)cc3)CC2)nc2ccccc21`, the survival is reported as inactive: 98%. With `Cc1ccccc1Oc1nc2c(c(=O)n(C)c(=O)n2C)n1Cc1ccc(Br)cc1` the survival was inactive: 125%. `Cc1ccc(CN2C(=O)C(C)(C)Oc3ccc(C(=O)NC4CC4)cc32)cc1` was tested, and the survival was inactive: 108%. With `O=C(Nc1ccc(OC(F)(F)F)cc1)NC1COc2ccccc2C1` (stereo not drawn) the survival was active: -3%. With `C=CCC(C#Cc1ccccc1)N(C)C` (stereo not drawn) the survival was inactive: 107%. For `COc1cc(OC)c(NC(=O)c2cc(S(=O)(=O)N3CCCC3)cn2C)cc1Cl`, the survival was inactive: 87%. With `CC(NC(=O)CSc1n[nH]c(-c2ccccc2)n1)c1nc2ccccc2n1C` (stereo not drawn) the survival was inactive: 59%. In the case of `Cc1ccc(S(=O)Cc2nc(-c3ccc(C(=O)NC(C)c4ccccc4)cc3)oc2C)cc1` (stereo not drawn), the survival is reported as inactive: 92%. With `CCCCc1ccc(Nc2ncnc3c2cnn3-c2ccc(C)cc2)cc1` the survival was active: -1%. `CCC1CCCCN1C(=O)Cn1c(=O)n(CC2CCC(C(=O)NC)CC2)c(=O)c2sccc21` (stereo not drawn) was tested, and the survival was inactive: 74%. In the case of `COc1ccc(N2CCN(Cc3nc4c(c(=O)[nH]c(=O)n4C)n3Cc3ccccc3)CC2)cc1`, the survival is reported as inactive: 116%. For `Cn1c(=O)c2sccc2n2c(CCC(=O)NCc3ccccc3)nnc12`, the survival was inactive: 148%. In the case of `CC(C)=CC1C(C(=O)Nc2ccc(Cl)cn2)C1(C)C` (stereo not drawn), the survival is reported as inactive: 113%. With `COC(=O)c1ccc(C(=O)OC)c(NC(=O)c2c(-c3ccccc3)c(-c3ccccc3)nn(C)c2=O)c1` the survival was inactive: 90%. For `Cc1ccc2c(c1)nc(SCC(O)c1ccc(Br)cc1)n2C` (stereo not drawn), the survival was inactive: 83%. `COc1ccc(Cl)cc1S(=O)(=O)Nc1cccc(-c2ccc(N3CCOCC3)nn2)c1` was tested, and the survival was inactive: 89%. `O=C(/C=C/c1ccccc1)N1CCCC1=O` was tested, and the survival was inactive: 119%. In the case of `NC(=O)c1c(O)c2c([nH]c1=O)CCCC2`, the survival is reported as inactive: 109%. `COc1cccc(CCNc2ncnc3c2nnn3C)c1` was tested, and the survival was inactive: 84%. `COc1cc2c(=O)n(CCC(=O)NCC3CCCO3)c(=O)n(CC(=O)Nc3c(C)cccc3C)c2cc1OC` (stereo not drawn) was tested, and the survival was inactive: 71%. For `CCCCOC(=O)c1ccc(NC(=O)/C(C#N)=C/c2ccc(-c3ccccc3)o2)cc1`, the survival was inactive: 21%. In the case of `O=C(NCc1ccc(F)cc1)c1cc2c(s1)-c1ccccc1SC2`, the survival is reported as inactive: 50%. For `COc1ccc(NC(=O)c2cc3c(=O)n(Cc4ccco4)ccc3nc2C)c(OC)c1`, the survival was inactive: 88%. With `O=C(CCCn1c(=O)c2ccccc2n(CC(=O)Nc2ccc(F)cc2F)c1=O)NCc1ccccc1Cl` the survival was inactive: 113%. In the case of `CC(=O)c1ccc(NC(=O)CSc2ccc3nc(-c4ccccc4)cn3n2)cc1`, the survival is reported as inactive: 68%. With `CCOC(=O)Nc1ccc2c(c1)OCO2` the survival was inactive: 116%. In the case of `Cc1ccc(-c2cc(C(=O)N3CCN(S(=O)(=O)c4ccc(Br)s4)CC3)[nH]n2)c(C)c1`, the survival is reported as inactive: 65%. With `COc1cc(-c2nnc(SCC(=O)NC(C)C)o2)cc(OC)c1OC` the survival was inactive: 115%. `CCOc1ccc(CCNC(=O)C2Cc3ccccc3N2C(=O)CC)cc1OCC` (stereo not drawn) was tested, and the survival was inactive: 92%. For `CCC(NC(C)=O)c1ccccc1` (stereo not drawn), the survival was inactive: 112%. In the case of `Cc1ccc(N(CC(=O)Nc2ccc(Br)c(C)c2)S(=O)(=O)c2cccs2)cc1`, the survival is reported as inactive: 82%. For `CN(C)c1ccc(CNC(=O)C(Cc2ccccc2)NS(=O)(=O)c2ccc3c(c2)oc(=O)n3C)cc1` (stereo not drawn), the survival was inactive: 85%.
